About 14,000 (4.5%) of roughly 310,000 compounds showed an effect of 50% or more. The effect is printed as a negative number. Some of the results follow.
Each compound was assayed against human ether-à-go-go-related gene (hERG) potassium channel (human, UniProt Q12809) (assay: primary screen, population patch clamp on CHO cells stably expressing hERG).
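Further: peak tail current of the secondary pulse compared with the same well before compound.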

Chain of human ether-à-go-go-related gene (hERG) potassium channel (Q12809 whole entry, looked up): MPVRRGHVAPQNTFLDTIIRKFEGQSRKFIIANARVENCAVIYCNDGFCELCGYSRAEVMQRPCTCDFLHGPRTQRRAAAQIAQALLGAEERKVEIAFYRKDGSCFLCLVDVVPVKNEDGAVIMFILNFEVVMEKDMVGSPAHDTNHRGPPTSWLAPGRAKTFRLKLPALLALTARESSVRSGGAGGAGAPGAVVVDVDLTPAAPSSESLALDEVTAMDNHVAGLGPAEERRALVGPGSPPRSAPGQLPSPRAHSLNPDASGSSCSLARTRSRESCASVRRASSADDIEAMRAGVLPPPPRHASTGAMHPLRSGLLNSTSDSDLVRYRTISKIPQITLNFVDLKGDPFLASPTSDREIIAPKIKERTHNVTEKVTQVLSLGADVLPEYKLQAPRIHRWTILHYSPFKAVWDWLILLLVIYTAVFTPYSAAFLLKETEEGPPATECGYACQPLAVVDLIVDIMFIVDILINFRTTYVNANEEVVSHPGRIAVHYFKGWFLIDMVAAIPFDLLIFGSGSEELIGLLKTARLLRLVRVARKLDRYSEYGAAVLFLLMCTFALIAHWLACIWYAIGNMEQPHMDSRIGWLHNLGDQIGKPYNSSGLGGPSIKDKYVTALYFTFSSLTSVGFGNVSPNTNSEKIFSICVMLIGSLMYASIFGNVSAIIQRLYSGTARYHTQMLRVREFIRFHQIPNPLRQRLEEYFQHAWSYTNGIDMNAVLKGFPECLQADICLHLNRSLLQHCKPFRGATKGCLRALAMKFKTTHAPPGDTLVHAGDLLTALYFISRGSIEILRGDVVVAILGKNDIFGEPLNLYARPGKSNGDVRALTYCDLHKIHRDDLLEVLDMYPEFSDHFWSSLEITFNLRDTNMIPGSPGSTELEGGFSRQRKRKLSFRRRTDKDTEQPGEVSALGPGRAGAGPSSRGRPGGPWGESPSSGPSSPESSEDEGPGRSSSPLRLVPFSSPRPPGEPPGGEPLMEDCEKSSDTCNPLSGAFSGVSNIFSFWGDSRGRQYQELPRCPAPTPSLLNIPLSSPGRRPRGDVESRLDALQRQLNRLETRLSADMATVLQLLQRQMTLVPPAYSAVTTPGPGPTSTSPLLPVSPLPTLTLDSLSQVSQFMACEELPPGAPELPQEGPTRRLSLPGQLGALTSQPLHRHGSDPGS

Question: How did the “hERG current change (%, negative = inhibition) at 10uM” value turn out when `O=C(Nc1ccccc1-c1ccccc1)C12CC3CC(CC(C3)C1)C2` was run?
Answer: 2.1%

Question: For `CCCc1cc(-c2ccc3c(c2)COc2c4ccccc4nn2-3)on1`, which “hERG current change (%, negative = inhibition) at 10uM” value is on record?
Answer: -21.4%

Question: How did the “hERG current change (%, negative = inhibition) at 10uM” value turn out when `Fc1ccc(CSc2ncnc3scc(-c4ccccc4)c23)cc1` was run?
Answer: 7.53%

Question: With `O=C1NC(NS(=O)(=O)c2ccccc2)(C(F)(F)F)C(=O)N1c1cccc(Cl)c1` (centres unmarked) as the compound, how does the “hERG current change (%, negative = inhibition) at 10uM” value read?
Answer: 14.9%

Question: `CC(=O)O[C@]1(C(C)=O)CC[C@H]2[C@@H]3C=C(Cl)C4=CC(=O)[C@@H]5C[C@@H]5[C@]4(C)[C@H]3CC[C@@]21C` was tested. Which “hERG current change (%, negative = inhibition) at 10uM” value did it give?
Answer: 3.26%

Question: With `Cc1ccc(S(=O)(=O)n2cc(C=O)c3ccccc32)cc1` as the compound, how does the “hERG current change (%, negative = inhibition) at 10uM” value read?
Answer: -0.169%

Question: `CCCc1cc(C(=O)NC2CCCN(Cc3ccccc3F)C2)no1` (centres unmarked) was tested. Which “hERG current change (%, negative = inhibition) at 10uM” value did it give?
Answer: -17.5%

Question: `COc1ccc(Nc2nc(NCCN3CCOCC3)nc(Nc3ccc(OC)cc3)n2)cc1` was tested. Which “hERG current change (%, negative = inhibition) at 10uM” value did it give?
Answer: -78.2%

Question: Which “hERG current change (%, negative = inhibition) at 10uM” value does the source give for `COc1ccc(/C=C(\C#N)C(=O)N=CN(C)C)cc1` here?
Answer: -0.225%

Question: How did the “hERG current change (%, negative = inhibition) at 10uM” value turn out when `CS(=O)(=O)Nc1ccc(C2=NN(C(=O)c3cccc(F)c3)C(c3cccs3)C2)cc1` (centres unmarked) was run?
Answer: -53.8%

Question: `COCC(C)n1c(C)cc(C(=O)COC(=O)c2c(NC(C)=O)sc(C)c2C)c1C` (centres unmarked) was tested. Which “hERG current change (%, negative = inhibition) at 10uM” value did it give?
Answer: 3.49%

Question: For `Cc1ccc(CC(=O)Nc2ccc([N+](=O)[O-])cc2C)cc1`, which “hERG current change (%, negative = inhibition) at 10uM” value is on record?
Answer: 0.803%

Question: For `COc1ccc(-n2c(Cc3cccn3C)nnc2SCC(=O)Nc2cccc(NC(C)=O)c2)cc1`, which “hERG current change (%, negative = inhibition) at 10uM” value is on record?
Answer: -16.7%

Question: For `CC(C)(C)c1ccc(OCc2ccc(C(=O)NN)o2)cc1`, which “hERG current change (%, negative = inhibition) at 10uM” value is on record?
Answer: 8.83%

Question: `CCN1c2ccccc2-c2nc3ccccc3n2C1c1cccs1` (centres unmarked) was tested. Which “hERG current change (%, negative = inhibition) at 10uM” value did it give?
Answer: -5.22%

Question: Which “hERG current change (%, negative = inhibition) at 10uM” value does the source give for `CCOc1ccc(N2CC(C(=O)Nc3cccc(S(=O)(=O)N4CCCCC4)c3)CC2=O)cc1` (centres unmarked) here?
Answer: -5.13%

Question: How did the “hERG current change (%, negative = inhibition) at 10uM” value turn out when `CCCc1[nH]nc2c1C1(C(=O)N(CC)c3ccccc31)C(C#N)=C(N)O2` (centres unmarked) was run?
Answer: -6.38%

Question: For `CCOc1ccc(N2CC(C(=O)N3CCN(c4ccccn4)CC3)CC2=O)cc1` (centres unmarked), which “hERG current change (%, negative = inhibition) at 10uM” value is on record?
Answer: -59%

Question: For `N#Cc1ccsc1NC(=O)C1CCN(C(=O)c2ccc(Cl)cc2)CC1`, which “hERG current change (%, negative = inhibition) at 10uM” value is on record?
Answer: -73.2%

Question: How did the “hERG current change (%, negative = inhibition) at 10uM” value turn out when `Cc1ccc(COC(=O)c2nn(C)c(=O)c3ccccc23)cc1` was run?
Answer: -1.73%

Question: `O=C1CC(c2cccs2)Cc2nc(NCC3CCCO3)ncc21` (centres unmarked) was tested. Which “hERG current change (%, negative = inhibition) at 10uM” value did it give?
Answer: -1.69%

Question: For `COc1ccc(-c2nc(C#N)c(N3CCN(C(=O)c4ccco4)CC3)o2)cc1OC`, which “hERG current change (%, negative = inhibition) at 10uM” value is on record?
Answer: 0.504%

Question: How did the “hERG current change (%, negative = inhibition) at 10uM” value turn out when `COC(=O)C(Cc1ccc(O)cc1)NC(=O)CCOc1ccc(OC)cc1` (centres unmarked) was run?
Answer: -3.87%

Question: How did the “hERG current change (%, negative = inhibition) at 10uM” value turn out when `O=C(CSc1cccc[n+]1[O-])c1cccs1` was run?
Answer: 16.4%

Question: How did the “hERG current change (%, negative = inhibition) at 10uM” value turn out when `Cc1ccc(Cl)c(OCC(=O)NC2CCN(Cc3ccccc3)CC2)c1` was run?
Answer: -115%

Question: Which “hERG current change (%, negative = inhibition) at 10uM” value does the source give for `Cn1ccnc1C(O)(c1ccccc1)c1nccn1C` here?
Answer: 26.3%

Question: With `Cc1ccc(-n2c(O)c(C=NCc3ccccn3)c3ccccc3c2=O)cc1C` as the compound, how does the “hERG current change (%, negative = inhibition) at 10uM” value read?
Answer: -11.5%

Question: How did the “hERG current change (%, negative = inhibition) at 10uM” value turn out when `CC(C)(C)OC(=O)NCCCC[C@H](NC(=O)c1nc[nH]c1C(=O)NCc1ccc(CNC(=O)OC(C)(C)C)cc1)C(=O)OC(C)(C)C` was run?
Answer: -6.28%

Question: How did the “hERG current change (%, negative = inhibition) at 10uM” value turn out when `Cc1cc(F)c(F)c(C(=O)N2CCCCC2C)c1Cl` (centres unmarked) was run?
Answer: 1.73%

Question: Which “hERG current change (%, negative = inhibition) at 10uM” value does the source give for `Cc1cccc2c1nc(-c1ccccc1)n1nnnc21` here?
Answer: 1.91%

Question: How did the “hERG current change (%, negative = inhibition) at 10uM” value turn out when `COc1ccc(S(=O)(=O)N(C)c2ccc(C(=O)NCc3ccccn3)cc2)cc1OC` was run?
Answer: 4.53%

Question: `COc1ccc(OC)c(/C=N/NC(=O)c2cc[n+](Cc3ccccc3)cc2)c1.[Cl-]` was tested. Which “hERG current change (%, negative = inhibition) at 10uM” value did it give?
Answer: 4.36%

Question: With `Cc1cccc(-n2c(SCC(=O)N3CCN(c4ccccn4)CC3)nnc2N2CCOCC2)c1` as the compound, how does the “hERG current change (%, negative = inhibition) at 10uM” value read?
Answer: -12.9%

Question: For `Cc1nc2ccccc2c(=O)n1-c1cc(F)ccc1F`, which “hERG current change (%, negative = inhibition) at 10uM” value is on record?
Answer: 8.31%

Question: How did the “hERG current change (%, negative = inhibition) at 10uM” value turn out when `CCOC(=O)COc1nc(-c2ccco2)cc(-c2ccco2)c1C#N` was run?
Answer: 7.92%

Question: With `Cc1nnc(-c2cccc(Br)c2)c2cn(-c3ccc(Br)cc3)nc12` as the compound, how does the “hERG current change (%, negative = inhibition) at 10uM” value read?
Answer: -25%

Question: How did the “hERG current change (%, negative = inhibition) at 10uM” value turn out when `CC1CCN(S(=O)(=O)c2cccc(S(=O)(=O)N3CCOCC3)c2)CC1` was run?
Answer: -30.2%

Question: Which “hERG current change (%, negative = inhibition) at 10uM” value does the source give for `Cc1ccc(-c2nn(-c3ccccc3)cc2/C=N/NC(=O)c2ccc(Br)o2)cc1` here?
Answer: 5.59%

Question: How did the “hERG current change (%, negative = inhibition) at 10uM” value turn out when `Cc1ccc(N2C(=O)c3ccccc3NC2C(C)Cc2ccc3c(c2)OCO3)cc1` (centres unmarked) was run?
Answer: 7.33%

Question: For `CCCCn1c(NCc2ccc(N(C)C)cc2)nc2ccccc21`, which “hERG current change (%, negative = inhibition) at 10uM” value is on record?
Answer: -43.7%

Question: Which “hERG current change (%, negative = inhibition) at 10uM” value does the source give for `Cc1nonc1OCCNCCNc1ccc([N+](=O)[O-])c2cccnc12` here?
Answer: -52.2%

Question: For `C[C@]1(CC/C(=C/CO)CO)[C@H](CO)CC[C@@]23COC(=O)C2=CCC[C@@H]31`, which “hERG current change (%, negative = inhibition) at 10uM” value is on record?
Answer: 16.4%

Question: Which “hERG current change (%, negative = inhibition) at 10uM” value does the source give for `CCNC(=O)COC(=O)c1ccc(-c2nc3ccccc3s2)s1` here?
Answer: 4.16%

Question: For `O=C(OCCCOC(=O)c1ccc(O)cc1)c1ccc(O)cc1`, which “hERG current change (%, negative = inhibition) at 10uM” value is on record?
Answer: -17.3%

Source: paper PMC4336329 (PLoS ONE, 2015)
